Test results from the supplement of paper PMC9446081.
Among all 39,000 compounds or so, about 220 (0.56%) showed activity. The list shows a part of the results.

tested on: Escherichia coli K-12 BW25113; assay: relative growth (OD600 normalised to plate interquartile mean) (fraction); higher = less growth inhibition, active = 0.2 or less; details: 50 µM; LB; incubation time: overnight (16-24 h)
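Also: static incubation at 37 °C against the wild-type strain, values averaged over two biological replicates.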

SMILES | relative growth
Cc1noc(C)c1S(=O)(=O)Nc1ccc2c(c1)C(=O)N([C@H](C)CO)C[C@@H](C)[C@H](CN(C)Cc1ccc3c(c1)OCO3)O2 | inactive: 0.968
COC(=O)/C=C1\N[C@H]2CCCC[C@@H]2NC1=O | inactive: 1.04
C[C@@H]1CCCCO[C@@H](CN(C)Cc2ccc3c(c2)OCO3)[C@H](C)CN([C@@H](C)CO)C(=O)c2cc(NC(=O)Nc3ccc(C(F)(F)F)cc3)ccc2O1 | inactive: 0.99
Cc1noc(C)c1NC(=O)Nc1ccc2c(c1)C(=O)N([C@H](C)CO)C[C@H](C)[C@H](CN(C)C(=O)C1CCCCC1)OCCCC[C@@H](C)O2 | inactive: 0.989
NNCCc1ccccc1 | inactive: 0.818
CCN(CC)C(=O)C1CCNCC1 | inactive: 0.977
Nc1ccc(NC(=O)CCN2CCOCC2)cc1 | inactive: 1.01
C[C@H]1CCCCO[C@@H](CN(C)Cc2ccncc2)[C@@H](C)CN([C@@H](C)CO)C(=O)c2cc(NC(=O)CCC(F)(F)F)ccc2O1 | inactive: 0.986
COc1ccc(NC(=O)N(C)C[C@@H]2OCCCC[C@@H](C)Oc3ccc(NC(=O)Nc4ccc5c(c4)OCO5)cc3C(=O)N([C@@H](C)CO)C[C@H]2C)cc1 | inactive: 0.997
C[C@H](CO)N1C[C@H](C)[C@@H](CN(C)C(=O)Nc2ccc(F)cc2)OCCCC[C@H](C)Oc2ccc(NC(=O)Cc3ccccc3)cc2C1=O | inactive: 1.03
Cc1cc2nc3c(=O)[nH]c(=O)nc-3n(C[C@@H](O)[C@@H](O)[C@@H](O)CO)c2cc1C | inactive: 1.01
CC(CCc1ccc(O)cc1)NCCc1ccc(O)c(O)c1.Cl (stereo not given) | inactive: 1.09
CC(C)NC(=O)N(C)C[C@H]1Oc2ccc(NC(=O)NC3CCCCC3)cc2C(=O)N([C@H](C)CO)C[C@H]1C | inactive: 1.02
C[C@@H]1CN([C@@H](C)CO)C(=O)Cc2cc(NC(=O)Nc3ccccc3)ccc2O[C@H]1CN(C)S(C)(=O)=O | inactive: 0.99
Cc1noc(C)c1NC(=O)N(C)C[C@@H]1Oc2c(NC(=O)c3ccncc3)cccc2C(=O)N([C@@H](C)CO)C[C@@H]1C | inactive: 0.959
O=C(C[C@H]1CC[C@@H](NC(=O)c2ccc(F)cc2)[C@H](CO)O1)NCc1ccncn1 | inactive: 0.986
C[C@H]1CCCCO[C@@H](CN(C)C(=O)Nc2ccc(C(F)(F)F)cc2)[C@@H](C)CN([C@@H](C)CO)C(=O)c2cc(NS(=O)(=O)c3ccc(F)cc3)ccc2O1 | inactive: 1.01
C[C@H]1CN([C@@H](C)CO)C(=O)c2cc(NC(=O)Cn3cnnn3)ccc2O[C@H]1CN(C)S(=O)(=O)c1ccc(Cl)cc1 | inactive: 1.01
CCCC(=O)N1CC[C@]2(CC1)CN([C@@H](CO)c1c2c2ccc(cc2n1C)OC)C(=O)CN1CCOCC1 | inactive: 1.02
COCC#Cc1ccc2c(c1)O[C@@H](CN(C)C(=O)c1ccccc1)[C@H](C)CN([C@@H](C)CO)S2(=O)=O | inactive: 1.04

SMILES | relative growth
C[C@@H]1CCCCO[C@H](CN(C)S(=O)(=O)c2cccs2)[C@@H](C)CN([C@H](C)CO)C(=O)c2cc(NC(=O)CCCCCC(=O)Nc3ccccc3N)ccc2O1 | inactive: 0.986
COc1cc(C(=O)NC2CCN(C)CC2)ccc1Nc1ncc2c(n1)N(C1CCC(O)CC1)CCC(=O)N2C (stereo not given) | inactive: 1
C[C@@H]1CN([C@@H](C)CO)C(=O)c2cc(NC(=O)C3CCCCC3)ccc2O[C@@H](C)CCCCO[C@@H]1CN(C)C(=O)c1ccccc1 | inactive: 0.991
CCS(=O)(=O)Nc1ccc2c(c1)C(=O)N(C)[C@H]1CC[C@H](CC(=O)N[C@@H]3CCN(Cc4ccccc4)C3)O[C@H]1CO2 | inactive: 0.98
Cc1ccc(S(=O)(=O)N(C)C[C@@H]2Oc3ccc(NC(=O)C4CC4)cc3CC(=O)N([C@@H](C)CO)C[C@@H]2C)cc1 | inactive: 1.01
C[C@H](CO)N1C[C@H](C)[C@@H](CN(C)C(=O)Nc2cccc(F)c2)OCc2ccccc2-c2c(n(C)c3ccccc23)C1=O | inactive: 1.01
CC[N+](C)(CC)Cc1ccccc1 | inactive: 0.993
C[C@@H]1CN([C@@H](C)CO)C(=O)c2cc(NC(=O)Nc3ccccc3)ccc2O[C@@H](C)CCCCO[C@H]1CN(C)C(=O)Cc1ccccc1 | inactive: 1.02
C[C@@H]1CN([C@H](C)CO)C(=O)CCCn2nncc2CO[C@H]1CN(C)C(=O)Nc1ccnc(N2CCOCC2)c1 | inactive: 1
CC(=O)c1cccc(S(=O)(=O)N2[C@@H]3CC[C@@H](C3)[C@H]2c2nc3cccc(OCc4ccc(F)cc4)c3[nH]2)c1 | inactive: 0.997
C[C@@H](NC(=O)C[C@@H]1C=C[C@@H](NC(=O)CN2CCOCC2)[C@H](CO)O1)c1ccccc1 | inactive: 0.992
COc1ccc(C(=O)Nc2ccc3c(c2)C(=O)N(C)[C@H]2CC[C@H](CC(=O)NCC4CC4)O[C@H]2CO3)cc1 | inactive: 0.977
Cc1cn(CCC#N)c2ccccc12 | inactive: 0.983
CC(C)(O)c1cn(-c2ccc(-c3cccc(S(C)(=O)=O)c3)cc2)c(C(C)(C)c2ccccc2Cl)n1 | inactive: 1.04
C[C@@H]1CN([C@@H](C)CO)C(=O)c2cc(NC(=O)Cn3cnnn3)ccc2O[C@@H]1CN(C)Cc1ccccc1 | inactive: 1
Cc1ccc(S(=O)(=O)N(C)C[C@@H]2Oc3c(NC(=O)C4CCOCC4)cccc3C(=O)N([C@H](C)CO)C[C@H]2C)cc1 | inactive: 1.01
COc1ccc(S(=O)(=O)N(C)C[C@@H]2Oc3ccc(NC(=O)Cn4cnnn4)cc3C(=O)N([C@@H](C)CO)C[C@H]2C)cc1 | inactive: 1.03
C[C@@H]1CN([C@H](C)CO)C(=O)c2c(c3ccccc3n2C)-c2ccccc2CO[C@H]1CN(C)C(=O)Nc1ccccc1C(F)(F)F | inactive: 0.961
C[C@@H]1CN([C@@H](C)CO)C(=O)Cc2cc(NC(=O)CCCN(C)C)ccc2O[C@H]1CN(C)Cc1ccncc1 | inactive: 1.01
C[C@H](CO)N1C[C@H](C)[C@H](CN(C)Cc2ccc(C(=O)Nc3ccccc3N)cc2)Oc2ccc(NS(=O)(=O)c3cn(C)cn3)cc2C1=O | inactive: 1.01
